Some of the results follow. Cut-off read from the data, not from the text of the source: active = 3.2 or more and inactive = the rest. Only a few entries rise above the background.
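Note: displayed peptides selected on beads carrying the immobilized SH2 domain, with library peptides lacking any tyrosine serving as negative controls.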

For one experiment, the target named is SHP2 C-SH2 domain E139D. Briefly: enrichment score (SH2-bound / input frequency) (ratio); bacterial display of known human phosphotyrosine sites (pTyr-Var adds point mutants) read by sequencing; higher = stronger binding; tyrosines were phosphorylated by kinases first. The conditions noted are these: peptide library: pTyr-Var.
With RKGGSYSQAAS [HLA-A_Y344_T345S], the enrichment score was inactive: 0.498.
For the molecule TWQSMYGCDVG [HLA-B_Y123_L119W], the enrichment score was inactive: 1.03.
The same measure, in the same setting: the figure for RFLRGYHQDAY [HLA-A_Y137_R138H] is inactive: 0.577.
On the same count and under the same terms, the figure for RFLRGYQQDAF [HLA-A_Y137_R138Q_YF] is inactive: 0.995.
Same read-out and setting: the figure for MGGSLYFSFPD [HIKESHI_Y55_V54L_YF] is inactive: 1.3; for RFLRGYRQDAF [HLA-A_Y137_YF] it is inactive: 0.337.
With QEGPEYWDQNT [HLA-A_Y83_E87N], the enrichment score is inactive: 0.494.
The same measure, in the same setting: the figure for QEGPEYWDLET [HLA-A_Y83_Q86L] is inactive: 0.66; for RKGGSYTQAAS [HLA-A_Y344] it is inactive: 0.911; for RFLRGYRQDAY [HLA-A_Y137] it is inactive: 0.175.
The same measure, in the same setting: the figure for YVKEPYIQSRF [HIPK4_Y175] is inactive: 0.778.
On to RFLRGYEQDAF [HLA-A_Y137_R138E_YF], for which the enrichment score was inactive: 0.925.
Consider VDESLYKTHPQ [HK1_Y417_G414E], for which the enrichment score is inactive: 0.591.
The same measure, in the same setting: the figure for MGGSVYFSFPD [HIKESHI_Y55_YF] is inactive: 1.38; for QERPEYWDQET [HLA-A_Y83_G80R] it is inactive: 0.562.
On to RLLRGYRQDAY [HLA-A_Y137_F133L], for which the enrichment score was inactive: 0.239.
The same measure, in the same setting: the figure for TIQSMYGCDVG [HLA-B_Y123_L119I] is inactive: 0.958.
Same read-out and setting: the figure for GGQSVYHVHLH [HINT1_Y109] is inactive: 2.61.
The same measure, in the same setting: the figure for FSEVRYVKEPY [HIPK4_Y170] is inactive: 1.02.

For another experiment, the target named is SHP2 C-SH2 domain wild-type. The experiment is described as above. The conditions noted are these: peptide library: pTyr-Var.
Consider RKGGSYSQAAS [HLA-A_Y344_T345S], for which the enrichment score is inactive: 0.64.
On the same count and under the same terms, the figure for TWQSMYGCDVG [HLA-B_Y123_L119W] is inactive: 1.09; for RFLRGYHQDAY [HLA-A_Y137_R138H] it is inactive: 0.78.
Same read-out and setting: the figure for RFLRGYQQDAF [HLA-A_Y137_R138Q_YF] is inactive: 0.9; for MGGSLYFSFPD [HIKESHI_Y55_V54L_YF] it is inactive: 1.45.
Still for that read-out and setting: the figure for RFLRGYRQDAF [HLA-A_Y137_YF] is inactive: 0.141; for QEGPEYWDQNT [HLA-A_Y83_E87N] it is inactive: 0.769.
Take QEGPEYWDLET [HLA-A_Y83_Q86L]: the enrichment score is inactive: 0.92.
For the molecule RKGGSYTQAAS [HLA-A_Y344], the enrichment score was inactive: 0.511.
The same measure, in the same setting: the figure for RFLRGYRQDAY [HLA-A_Y137] is inactive: 0.237.
Take YVKEPYIQSRF [HIPK4_Y175]: the enrichment score was inactive: 1.
Still for that read-out and setting: the figure for RFLRGYEQDAF [HLA-A_Y137_R138E_YF] is inactive: 0.885; for VDESLYKTHPQ [HK1_Y417_G414E] it is inactive: 0.551; for MGGSVYFSFPD [HIKESHI_Y55_YF] it is inactive: 1.1.
The same measure, in the same setting: the figure for QERPEYWDQET [HLA-A_Y83_G80R] is inactive: 0.567.
On the same count and under the same terms, the figure for RLLRGYRQDAY [HLA-A_Y137_F133L] is inactive: 0.21.
On to TIQSMYGCDVG [HLA-B_Y123_L119I], for which the enrichment score was inactive: 0.814.
On the same count and under the same terms, the figure for GGQSVYHVHLH [HINT1_Y109] is inactive: 2.27; for FSEVRYVKEPY [HIPK4_Y170] it is inactive: 1.11.

Another experiment deals with SHP2 N-SH2 domain L43F. The experiment is described as above. The conditions noted are these: peptide library: pTyr-Var.
Consider RKGGSYSQAAS [HLA-A_Y344_T345S], for which the enrichment score is inactive: 0.903.
Regarding TWQSMYGCDVG [HLA-B_Y123_L119W], the enrichment score was inactive: 0.671.
For the molecule RFLRGYHQDAY [HLA-A_Y137_R138H], the enrichment score is inactive: 0.728.
In the case of RFLRGYQQDAF [HLA-A_Y137_R138Q_YF], the enrichment score is inactive: 0.72.
Same read-out and setting: the figure for MGGSLYFSFPD [HIKESHI_Y55_V54L_YF] is inactive: 1.7; for RFLRGYRQDAF [HLA-A_Y137_YF] it is inactive: 0.255.
Still for that read-out and setting: the figure for QEGPEYWDQNT [HLA-A_Y83_E87N] is inactive: 0.846; for QEGPEYWDLET [HLA-A_Y83_Q86L] it is inactive: 0.732; for RKGGSYTQAAS [HLA-A_Y344] it is inactive: 0.397.
On the same count and under the same terms, the figure for RFLRGYRQDAY [HLA-A_Y137] is inactive: 0.229; for YVKEPYIQSRF [HIPK4_Y175] it is inactive: 0.748; for RFLRGYEQDAF [HLA-A_Y137_R138E_YF] it is inactive: 0.815.
Turning to VDESLYKTHPQ [HK1_Y417_G414E], the enrichment score was inactive: 0.627.
The same measure, in the same setting: the figure for MGGSVYFSFPD [HIKESHI_Y55_YF] is inactive: 1.29; for QERPEYWDQET [HLA-A_Y83_G80R] it is inactive: 0.464; for RLLRGYRQDAY [HLA-A_Y137_F133L] it is inactive: 0.38.
Turning to TIQSMYGCDVG [HLA-B_Y123_L119I], the enrichment score is inactive: 0.727.
Still for that read-out and setting: the figure for GGQSVYHVHLH [HINT1_Y109] is inactive: 2.19; for FSEVRYVKEPY [HIPK4_Y170] it is inactive: 0.748.

In the next experiment the target is SHP2 N-SH2 domain T42A. The experiment is described as above. To be noted: peptide library: pTyr-Var.
On to RKGGSYSQAAS [HLA-A_Y344_T345S], for which the enrichment score is inactive: 0.45.
On to TWQSMYGCDVG [HLA-B_Y123_L119W], for which the enrichment score was inactive: 0.731.
On the same count and under the same terms, the figure for RFLRGYHQDAY [HLA-A_Y137_R138H] is inactive: 0.44; for RFLRGYQQDAF [HLA-A_Y137_R138Q_YF] it is inactive: 0.758.
With MGGSLYFSFPD [HIKESHI_Y55_V54L_YF], the enrichment score was inactive: 1.12.
As for RFLRGYRQDAF [HLA-A_Y137_YF], the enrichment score was inactive: 0.202.
On to QEGPEYWDQNT [HLA-A_Y83_E87N], for which the enrichment score is inactive: 0.558.
As to QEGPEYWDLET [HLA-A_Y83_Q86L], the enrichment score was inactive: 0.697.
Consider RKGGSYTQAAS [HLA-A_Y344], for which the enrichment score is inactive: 0.596.
The same measure, in the same setting: the figure for RFLRGYRQDAY [HLA-A_Y137] is inactive: 0.213.
The same measure, in the same setting: the figure for YVKEPYIQSRF [HIPK4_Y175] is inactive: 0.513; for RFLRGYEQDAF [HLA-A_Y137_R138E_YF] it is inactive: 0.883.
Still for that read-out and setting: the figure for VDESLYKTHPQ [HK1_Y417_G414E] is inactive: 0.544.
As to MGGSVYFSFPD [HIKESHI_Y55_YF], the enrichment score is inactive: 1.26.
On to QERPEYWDQET [HLA-A_Y83_G80R], for which the enrichment score is inactive: 0.468.
The same measure, in the same setting: the figure for RLLRGYRQDAY [HLA-A_Y137_F133L] is inactive: 0.242; for TIQSMYGCDVG [HLA-B_Y123_L119I] it is inactive: 0.729; for GGQSVYHVHLH [HINT1_Y109] it is inactive: 2.07.
The same measure, in the same setting: the figure for FSEVRYVKEPY [HIPK4_Y170] is inactive: 0.734.

In another experiment the target is SHP2 N-SH2 domain T52S. Described as above. The conditions noted are these: peptide library: pTyr-Var.
For RKGGSYSQAAS [HLA-A_Y344_T345S], the enrichment score is inactive: 0.639.
In the case of TWQSMYGCDVG [HLA-B_Y123_L119W], the enrichment score was inactive: 0.771.
On to RFLRGYHQDAY [HLA-A_Y137_R138H], for which the enrichment score is inactive: 0.651.
On the same count and under the same terms, the figure for RFLRGYQQDAF [HLA-A_Y137_R138Q_YF] is inactive: 0.786.
Regarding MGGSLYFSFPD [HIKESHI_Y55_V54L_YF], the enrichment score is inactive: 1.02.
Same read-out and setting: the figure for RFLRGYRQDAF [HLA-A_Y137_YF] is inactive: 0.34; for QEGPEYWDQNT [HLA-A_Y83_E87N] it is inactive: 0.539.
Turning to QEGPEYWDLET [HLA-A_Y83_Q86L], the enrichment score was inactive: 0.754.
On the same count and under the same terms, the figure for RKGGSYTQAAS [HLA-A_Y344] is inactive: 0.533.
Same read-out and setting: the figure for RFLRGYRQDAY [HLA-A_Y137] is inactive: 0.328.
As to YVKEPYIQSRF [HIPK4_Y175], the enrichment score was inactive: 0.693.
For the molecule RFLRGYEQDAF [HLA-A_Y137_R138E_YF], the enrichment score is inactive: 1.08.
Consider VDESLYKTHPQ [HK1_Y417_G414E], for which the enrichment score was inactive: 0.618.
MGGSVYFSFPD [HIKESHI_Y55_YF]: the enrichment score is inactive: 1.39.
With QERPEYWDQET [HLA-A_Y83_G80R], the enrichment score was inactive: 0.931.
Same read-out and setting: the figure for RLLRGYRQDAY [HLA-A_Y137_F133L] is inactive: 0.243; for TIQSMYGCDVG [HLA-B_Y123_L119I] it is inactive: 0.651.
For the molecule GGQSVYHVHLH [HINT1_Y109], the enrichment score is inactive: 2.25.
On the same count and under the same terms, the figure for FSEVRYVKEPY [HIPK4_Y170] is inactive: 0.771.

For a further experiment, the target named is SHP2 N-SH2 domain wild-type. The experiment is described as above. To be noted: peptide library: pTyr-Var.
For the molecule RKGGSYSQAAS [HLA-A_Y344_T345S], the enrichment score was inactive: 0.744.
With TWQSMYGCDVG [HLA-B_Y123_L119W], the enrichment score was inactive: 0.796.
On the same count and under the same terms, the figure for RFLRGYHQDAY [HLA-A_Y137_R138H] is inactive: 0.867.
Consider RFLRGYQQDAF [HLA-A_Y137_R138Q_YF], for which the enrichment score is inactive: 0.586.
For MGGSLYFSFPD [HIKESHI_Y55_V54L_YF], the enrichment score is inactive: 2.09.
The same measure, in the same setting: the figure for RFLRGYRQDAF [HLA-A_Y137_YF] is inactive: 0.382; for QEGPEYWDQNT [HLA-A_Y83_E87N] it is inactive: 0.58.
Same read-out and setting: the figure for QEGPEYWDLET [HLA-A_Y83_Q86L] is inactive: 1.07.
Still for that read-out and setting: the figure for RKGGSYTQAAS [HLA-A_Y344] is inactive: 0.568; for RFLRGYRQDAY [HLA-A_Y137] it is inactive: 0.183; for YVKEPYIQSRF [HIPK4_Y175] it is inactive: 0.733.
Regarding RFLRGYEQDAF [HLA-A_Y137_R138E_YF], the enrichment score was inactive: 0.872.
Take VDESLYKTHPQ [HK1_Y417_G414E]: the enrichment score was inactive: 0.628.
Still for that read-out and setting: the figure for MGGSVYFSFPD [HIKESHI_Y55_YF] is inactive: 1.78.
Consider QERPEYWDQET [HLA-A_Y83_G80R], for which the enrichment score is inactive: 0.634.
The same measure, in the same setting: the figure for RLLRGYRQDAY [HLA-A_Y137_F133L] is inactive: 0.294; for TIQSMYGCDVG [HLA-B_Y123_L119I] it is inactive: 0.702; for GGQSVYHVHLH [HINT1_Y109] it is inactive: 2.46.
Consider FSEVRYVKEPY [HIPK4_Y170], for which the enrichment score is inactive: 1.26.

(Values after the supplement of paper PMC10369915.)
